From the GPR68 mutational scans of Howard et al. (2025)

B1: GPR68, Q15743 (parent)
chain: MGNITADNSSMSCTIDHTIHQTLAPVVYVTVLVVGFPANCLSLYFGYLQIKARNELGVYLCNLTVADLFYICSLPFWLQYVLQHDNWSHGDLSCQVCGILLYENIYISVGFLCCISVDRYLAVAHPFRFHQFRTLKAAVGVSVVIWAKELLTSIYFLMHEEVIEDENQHRVCFEHYPIQAWQRAINYYRFLVGFLFPICLLLASYQGILRAVRRSHGTQKSRKDQIQRLVLSTVVIFLACFLPYHVLLLVRSVWEASCDFAKGVFNAYHFSLLLTSFNCVADPVLYCFVSETTHRDLARLRGACLAFLTCSRTGRAREAYPLGAPEASGKSGAQGEEPELLTKLHPAFQTPNSPGSGGFPTGRLA

What was measured:
[1] = variants of: B1; assay: cAMP reporter score (Enrich2 score, wild type = 0); higher = more signal; HEK293T, FACS bins
[2] = variants of: B1; assay: surface expression score (Enrich2 score, wild type = 0); higher = more signal; HEK293T, FACS bins

Variant	cAMP reporter score ([1]; pH 5.5)	cAMP reporter score ([1]; pH 6)	cAMP reporter score ([1]; pH 6, modulator: ogerin)	cAMP reporter score ([1]; pH 6.5, modulator: ogerin)	surface expression score [2]
S257W	-1.18	1.16	-0.744		
S257Y	-0.201	-0.803	-1.13		
S257_C258insGSG	-0.554	-0.826	-0.973	-0.892	1.5
C258A	-1.2	-0.387		-1.04	-0.601
C258D	-1.35		-1.28	-0.786	-0.059
C258E	-0.986	-0.703		-1.32	-0.863
C258F	-1.23	-1.36	-1.56	-1.32	-2.3
C258G	-1.68	-0.609	-2.05	-1.27	0.064
C258H	-1.33	-1.08	-1.64	-1.31	-0.751
C258I	-2.3	-1.42	-1.51	-1.25	-2.58
C258L	-0.379		-1.07	-1.23	
C258M	-1.18		-0.998	-0.214	-1.78
C258N	-1.48	-0.845		-1.46	-1.45
C258P	-1.34	-0.501	-1.58	-0.963	0.15
C258Q	-1.44	-1.13	-1.09		-1.21
C258R	-0.677	0.39	-1.46	-0.662	-1.59
C258S	-1.86	-1.06	-1.49	-1.16	-1.63
C258T	-0.994	-0.451	-1.87	-0.341	-1.23
C258W	-1.1	-1.16	-0.49	-1.21	-1.62
C258Y	-1.36	-0.826	-1.34	-1.3	-1.34
D259_A261del	-1.31	-1.5	-0.931	-1.91	-2.17
D259_F260insGS	-1.28	-1.43	-1.81	-1.36	0.916
F260del	-0.731	-0.429	-1.08	-1.1	0.928
A261_K262insG	-1.4	-1.25	-1.76	-1.42	0.211
A261del	0.3	-0.391	0.567	0.155	0.201
K262_G263del	-1.09	-1.17	-2.31	-0.493	-0.282

Variant	cAMP reporter score ([1]; pH 5.5)	cAMP reporter score ([1]; pH 6)	cAMP reporter score ([1]; pH 6, modulator: ogerin)	cAMP reporter score ([1]; pH 6.5, modulator: ogerin)	surface expression score [2]
K262del	-1.62	-1.03	-1.21	-1.33	0.383
G263A	-0.021	0.723	0.162	0.989	0.137
G263C	-0.475	-0.648	-0.535	-0.508	-0.513
G263D	0.136	-1.3	0.618	0.172	-0.492
G263E	-0.292	0.355	-0.164	-0.173	-0.906
G263F	2.04	-0.522	0.464		2.04
G263H	0.294	-0.229	0.534	-0.07	0.446
G263I	1.1	-0.281	1.69	0.147	1.61
G263K	0.824	0.804	0.664	1.47	0.545
G263L	-0.297		-0.038	0.15	-0.241
G263M	-0.11	0.04	-0.03	-0.08	-0.486
G263N	-0.69	-0.787	-0.258	-0.163	-0.305
G263P	-1.17	-1.16	-1.07	-0.918	-1.33
G263Q	0.917		1.4	1.65	0.353
G263R	0.797	1.89	0.633		1.17
G263S	0.403	1.3	0.192	-0.239	-0.116
G263T	0.308		1.97	1	0.906
G263V	-0.003	0.003	0.191	0.121	0.307
G263W	1.22	1.05	0.948	1.13	1
G263Y	0.778	0.277	1.06	1.34	0.631
G263del	-1.41		-0.934	-0.703	-2.2
V264_F265del	-1.36	-0.492	-1.34	-1.03	-1.9
V264_F265insGS	-1.27	-0.431	-1.9	-0.58	-2.14
V264_N266del	-1.82	-0.694	-1.03	-1.18	-0.608
F265_A267del	-1.39	-1.37	-1.55	-0.803	-1.69
F265_N266del	-1.22	-0.991	-2.07	-0.698	-2.18

Variant	cAMP reporter score ([1]; pH 5.5)	cAMP reporter score ([1]; pH 6)	cAMP reporter score ([1]; pH 6, modulator: ogerin)	cAMP reporter score ([1]; pH 6.5, modulator: ogerin)	surface expression score [2]
F265_N266insGS	-0.587	-0.059	0.238	-0.669	-0.204
N266_A267del	-1.17	-1.18	-1.93	-1.02	-2.72
N266_A267insG	-0.784	-0.637	-0.88	-0.87	-0.717
N266_A267insGS	-1.01	-1.29	-1.38	-1.16	-2.15
N266_A267insGSG	-1.66		-1.22	-1.29	-2.28
A267_Y268del	-0.06	-0.232	-1.75	-0.858	-3.36
A267_Y268insGSG	-1.45		-1.95		-2.66
A267del	-0.586	-1.05	-1	-0.925	-2.17
Y268A	-1.99	-1.54	-1.98	-1.33	-0.931
Y268C	-0.554	-0.227	-1.14	-1.33	-1.88
Y268D	-1.61	-1.07	-1.31	-0.439	-2.79
Y268E	-0.975	-0.424	-1.4	-1.37	
Y268F	-0.939	-0.953	-1.05	-1.05	-0.105
Y268G	-1.53	-1.56		-0.896	-1.07
Y268H	-0.961	-0.244	-1.12	-0.645	-0.803
Y268I	-1.39	-0.463	-1.45	-1.05	-2.27
Y268L	-1.02	-0.764	-1.59	-1.25	-1.65
Y268M	-1.23	-0.734	-0.949		-0.64
Y268N	-0.658	-2	-1.43	-1.08	-2.19
Y268P	-0.857	-1.29		-1.58	-1.41
Y268R	-0.83	-1.23		-1.07	-2.38
Y268S	-1.33	-0.5	-1.13	-1.17	
Y268V	-1.49	-1.19	-1.45	-0.873	-1.39
Y268W	-0.527	-0.773	-0.571	-0.878	0.964
Y268_F270del	-0.956	-1.99	-1.76	-1.44	-1.88
Y268_H269insGS	-0.851	0.176	-0.736	-0.556	-2

Variant	cAMP reporter score ([1]; pH 5.5)	cAMP reporter score ([1]; pH 6)	cAMP reporter score ([1]; pH 6, modulator: ogerin)	cAMP reporter score ([1]; pH 6.5, modulator: ogerin)	surface expression score [2]
Y268del	-0.203	-1.34		-1.45	-2.55
H269A	0.253	-0.746	-0.324	-0.858	1.88
H269C	-1.05	-0.563	-1.13	-0.863	0.322
H269D	-1.15	-1.03	-1.06	-0.921	0.3
H269E	-0.736	-0.482	0.725		1.67
H269F	-0.889	0.049	-0.833	-1.23	1.34
H269G	-1.63	-0.08	-1.53	-0.858	-0.616
H269I	-0.758	-1.07	-1.79	-0.71	0.946
H269K	1.76	2.22	1.84	5.34	-0.867
H269L	-1.03	-1.44	-1.04	-0.313	1.31
H269M	-1.1	-0.681	-1.15	-0.938	0.878
H269N	-1.36	-0.874	-0.762	-0.839	0.026
H269P	0.485	-0.953		-0.496	-2.31
H269Q	-0.932	-1.49	-1.22	-1.53	0.109
H269R	0.095	-0.062	0.207	0.513	-0.838
H269S	-1.52	-0.982	-0.883	-0.9	-0.097
H269T	-0.148	-0.473	-1.67	-0.652	0.954
H269V	-1.04	-0.701	-1.22	-1.23	1.09
H269W	-0.906	-0.727	-1.31	-1.54	0.226
H269Y	-1.33	-0.648	-1.65	-1.34	-0.894
H269_F270del	-1.39	-1.46	-1.67	-1.06	-2.41
H269del	-1.15	-1.21	-1.72	-0.395	-2.77
F270_L272del	-1.04	-0.481	-1.77	-0.396	-2.73
F270_S271del	-0.31	-0.744	-1.68	-0.921	-1.99
F270_S271insGSG	-2.08	-0.668	-1.06	-1.2	-1.02
S271_L272del	-2.09	-1.66	-1.52	-1.37	-2.2

Variant	cAMP reporter score ([1]; pH 5.5)	cAMP reporter score ([1]; pH 6)	cAMP reporter score ([1]; pH 6, modulator: ogerin)	cAMP reporter score ([1]; pH 6.5, modulator: ogerin)	surface expression score [2]
S271_L272insGSG	-1.69	-1.36	-2.14	-0.942	-2.01
L272_L273insGS	-1.88	-0.818	-1.63	-1	-2.23
L272del	-1.91	-1.65		-1.43	-1.81
L273_L274del	-1.42	-0.975	-1.38	-1	-0.752
L273_L274insG	-1.42	-0.815	-1.51	-0.559	-2.03
L273_L274insGS	-0.58	-1.7	-2.17	-1.1	-2.51
L273_L274insGSG	-1.58	-0.934	-2.31	-1.74	-2.3
L274_T275del	-1.8	-1.27	-2.23	-1.17	-2.56
L274_T275insG	-0.829			-1.55	-3.39
L274del	-1.24	-1.26	-1.04	-0.491	-2.3
T275_S276insGSG	-1.23	-0.221	-1.18	-0.814	-2.16
T275del	-0.791	0.502		-0.844	-2.09
S276A	0.156	-0.753	-0.327	-0.706	-0.291
S276C	0.596		1.3	1.54	
S276D	-1.3	-1.8	-0.623	-0.724	-2.94
S276E	-1.54	-0.694	-1.45	-1.42	-1.68
S276F	-2.08	-0.824		-1.99	-2.21
S276G	0.454	-0.324	-0.131	-0.771	-0.75
S276H	0.545	2.24	0.81	1.87	
S276I	-1.33	-2.05		-2.28	-0.658
S276K	-1.23	-1.08	-1.61	-1.27	0.376
S276M	-1	-2.08	-0.473	-1.02	0.214
S276N	-1.26	-1.28	-2.27	-1.49	-0.172

Scores whose standard error is large were omitted. The source holds two more conditions with little spread; they are left out. Read del as a deletion of the residues named and ins as an insertion between two positions. For some assays here: The concentration of ogerin is not given here.
